# Measurements reported in the supplement of paper PMC3334620.
# In all, about 33,000 sequences were measured (“E-score (-0.5 to 0.5)”: median about -0.016, highest 2% from about 0.31 on). The list shows a part of the results.
# Molecular target: Cst6 (UniProt P40535)
# Assay: PBM E-score (8-mer binding enrichment) (E-score (-0.5 to 0.5)); higher = stronger / more preferred TF binding; most listed sequences are background and not binding sites
# Details: protein concentration: 200 nM; construct: GST-DNA-binding domain
# Procedure, shortened: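 Using PURExpress in vitro transcription/translation, GST-tagged yeast transcription factors were made in full-length or DNA-binding-domain form. These were applied at about 100-200 nM to double-stranded universal all-10-mer Agilent arrays, and bound protein was detected with fluorescent anti-GST. Scans were normalised with masliner before the Universal PBM Analysis Suite assigned E-scores to ungapped eight-base words pooled with their reverse complements.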
row,Sequence,PBM E-score
1,CGCAACTA,0.0678
2,AGCTATTA,0.0826
3,CACTATGG,-0.237
4,CTTTACGC,0.196
5,CAATCCAG,0.00496
6,AGCGTCAT,0.423
7,CAAAGCGG,0.0493
8,AGAGTGTG,-0.129
9,ACAGTTAG,-0.0051
10,ACACATAG,0.0732
11,GACTCGTA,-0.126
12,AATTTAGC,0.228
13,CACTACAA,0.281
14,ACGCGACG,0.0129
15,AAAGTTCT,-0.0864
16,ACGGCGAT,0.3
17,ACATAAGT,0.139
18,GATTAAGC,-0.0145
19,AAACTTCA,0.186
20,CTCCCCGA,-0.212
21,CAAATCTG,0.0139
22,ATCGAGAT,0.00125
23,GCACTCCC,-0.123
24,CGCCTTGA,-0.0316
25,TCGGTCAA,-0.0181

row,Sequence,PBM E-score
1,CGTCGCTA,0.145
2,AAAGACCG,-0.159
3,GAAACTGA,0.0115
4,CCGACCTA,0.0414
5,ATGAGTAA,0.0389
6,AGAAAGTG,-0.123
7,ATTGCATC,0.232
8,CTTTTCCC,0.0307
9,AAAGTAAA,0.138
10,CGGTGAAA,0.0801
11,AAGAAGAT,0.0293
12,GGGGCACC,-0.117
13,ATACAATG,0.169
14,AATGGGAA,-0.133
15,AACATGGC,0.0119
16,GAAAAAGC,0.097
17,ACGAAAAG,0.106
18,CAACTGAC,0.0886
19,GCTCCACA,-0.169
20,GCAATAGA,0.0115
21,AACACGTT,0.0953
22,CTCCTTTA,-0.251
23,ATGCTATA,-0.0582
24,AAGAAATA,0.226
25,ATCACAAC,0.218

row,Sequence,PBM E-score
1,TCTGCAAA,0.0063
2,AGCGCCGA,0.00204
3,AGAGCCTA,-0.00715
4,GTACATAC,0.0163
5,ATCAGAAA,0.11
6,AACGCCCC,-0.0981
7,ATTCTCAG,0.0691
8,AATAGGGC,-0.1
9,ACTTTCAT,0.0339
10,CAGGTGGA,-0.219
11,TGTAACAA,0.146
12,CGTCTGAC,0.166
13,CTAGTGAG,0.118
14,CTTAACTA,0.174
15,ATCTTAAG,0.0791
16,GAGCCCCC,-0.261
17,CCTTGCTA,0.0372
18,CAAGCGGA,-0.277
19,ACGGCTCT,0.174
20,ATCCCCGA,-0.251
21,CAATAAGA,0.181
22,ATACTTCA,0.0785
23,ATCTTAAA,0.0934
24,ATTTGCTG,0.134
25,TCGCCAAA,-0.103

row,Sequence,PBM E-score
1,CCTCATTA,0.174
2,AATATCAC,0.223
3,CAGCGACC,-0.133
4,AAGTCAAC,0.03
5,AGTTCTCG,0.064
6,AAAGGCAT,0.132
7,AGCTGAGC,-0.177
8,CTGCGATC,-0.131
9,GGAGGCGA,-0.154
10,AATCCTTG,-0.00761
11,CGGTGATC,-0.0129
12,TGAACGCA,0.149
13,AATCTTCG,0.107
14,AGCCGACA,-0.162
15,CTATCTCC,-0.127
16,AGCGACAC,-0.0539
17,AACTGTCG,-0.021
18,AATCCTCC,-0.247
19,ACGGCTGA,-0.0107
20,CCTTCTTC,-0.206
21,AATCCCAC,-0.204
22,GCTCCAGA,-0.254
23,CCCCAGCC,-0.331
24,CGTCGCCC,-0.0868
25,ATGTGGGC,-0.068

row,Sequence,PBM E-score
1,CATTACGC,0.219
2,CGATAGGA,-0.174
3,ACGGACGG,-0.0663
4,CACAGCTA,-0.217
5,AAGCGATG,-0.134
6,GGAGATTA,0.13
7,TGGGCCAA,-0.213
8,GAAAACAA,0.18
9,CAGGTGGG,-0.214
10,CAAGATAC,0.0316
11,ATAAGCAT,-0.023
12,ATGTATAA,0.11
13,ATGGAAGA,-0.0561
14,GTGGGTTA,-0.0365
15,CATAATAC,0.224
16,CAGATATG,9e-05
17,ATTCTAGC,-0.114
18,TCAAAGAA,0.0267
19,GCCATGCC,-0.0464
20,GCATTGGA,-0.00245
21,GAAGGGTA,-0.0857
22,ATACTAAT,0.0826
23,AAAGTTGA,0.0474
24,CCTCTACA,-0.208
25,ATGTTTGG,0.152

row,Sequence,PBM E-score
1,AAGCGCCG,0.305
2,CCAACAAC,-0.0167
3,GATCTTGA,0.0199
4,GGACGAAA,0.0732
5,TAAAAGCA,0.0288
6,AGAATAAT,0.159
7,TCTTGGAA,0.0581
8,AGGCCACC,-0.191
9,AGGCTCAC,-0.262
10,CTTCGGAA,0.023
11,GACCCCCC,-0.384
12,ATACTTCG,0.0898
13,AGCATTTC,0.0706
14,CACTTAAA,0.0639
15,AATCAATG,0.272
16,GGTGCTAA,-0.0433
17,GTGTGAGA,0.0223
18,AATCTACG,-0.0584
19,CACAACTA,0.202
20,ATGGTTGA,0.0658
21,ACGGCCAC,0.00593
22,CGCGTGGC,-0.109
23,AATTCAGG,0.0738
24,CTCACAAA,0.102
25,CAGTGTAC,-0.0854

row,Sequence,PBM E-score
1,TAACAATA,0.203
2,CGGTTGCC,-0.0342
3,CGGAATAG,0.0728
4,TATCTTCA,0.0579
5,GAGAGAAC,-0.0626
6,ACTGGAAT,0.0324
7,CGCAGGGC,0.00825
8,AATGTTAG,0.022
9,GCTCCTGA,-0.0951
10,CACAAGCG,-0.00602
11,TAAGTGTA,0.0518
12,GCTGGGAA,-0.201
13,ATCTCTCA,0.15
14,CGTAACGA,0.174
15,CGTTCGCA,-0.0183
16,CCGGGTAG,-0.222
17,ACTGCGGC,0.0826
18,CGCACCCC,-0.188
19,TTAGCCAA,-0.108
20,TAACAGAA,0.203
21,AGACTACG,-0.266
22,GAGGCTCA,-0.128
23,GCATACAC,0.0161
24,AAATATAG,0.297
25,CATTTTGA,0.0465

row,Sequence,PBM E-score
1,CGACCCCG,-0.235
2,CGCTTAAA,0.18
3,TAAGGATA,0.0505
4,ATTATTCA,0.255
5,CCTTTATC,-0.201
6,CTCCCAGC,-0.338
7,AAGTACGA,0.113
8,GGGACGGA,-0.29
9,CAGGCATA,-0.09
10,GATAGCAC,-0.109
11,CGGAACAG,-0.135
12,GAAGCCGC,0.135
13,TCCCACCA,-0.269
14,GACTGCTC,-0.26
15,ATGTATCA,0.208
16,GAGTAATC,-0.0133
17,AAAATGTT,0.194
18,GTAAATCA,0.178
19,GCTGGACC,-0.322
20,AGAATCAG,0.125
21,AGTGCTCC,-0.159
22,AACCGATT,-0.0861
23,CGAACCAC,-0.0519
24,ATTTAGCG,0.0652
25,ACCACAAC,0.096

row,Sequence,PBM E-score
1,ACTGCATA,0.0775
2,CCGCCCAG,-0.187
3,GACTGCTA,-0.318
4,CTGGGCTC,-0.289
5,ACTTAACT,0.0697
6,CAATGGAC,0.105
7,CTCGGGCC,-0.187
8,CCCAGACC,-0.193
9,CGAGTCCA,-0.267
10,GAGCGAAA,0.146
11,GACCGTGC,-0.213
12,GTGAGCGA,-0.0292
13,AGGCTGAA,-0.117
14,CCGTCTCC,-0.158
15,CAGGAGCG,-0.0364
16,AAGGGTGA,0.165
17,ACTCGTAT,0.00989
18,AGAGACCC,-0.11
19,CACACTAA,0.215
20,CCGGTCAG,-0.31
21,ATCCGGTC,-0.231
22,GTCCATAA,-0.114
23,AATATCCT,0.0626
24,ACTGCAAC,-0.0166
25,GCCTAGCA,-0.239

row,Sequence,PBM E-score
1,CATCTAAA,0.194
2,AAATGCCT,0.124
3,GACATGTA,0.132
4,GGGGCAAA,-0.152
5,GCCGAAGA,0.117
6,TGCCTAAA,0.0602
7,CAACGCTG,0.037
8,AGCGTTTA,-0.156
9,ACGTCTTA,0.157
10,AGAATCTG,0.00858
11,GCTAAAAA,0.129
12,CACGCATA,-0.215
13,CAGAGTAC,-0.13
14,CGCTGCCG,-0.0508
15,GACGGGCC,-0.191
16,TAACTAAA,0.154
17,CCGCGGCC,0.0391
18,ATTAGGTA,0.261
19,GCGCCGCA,0.38
20,GCGCATAA,0.0295
21,ATCTTACC,0.065
22,GCATAGGA,-0.0572
23,ATCTCCCA,0.0539
24,ACTAGGTG,-0.313
25,GAAGTGAA,0.116

row,Sequence,PBM E-score
1,GTCCGCTA,-0.136
2,AGCGCCCA,-0.259
3,CCCGTACG,-0.134
4,ACGACTGG,-0.226
5,CCTGCCTC,-0.258
6,CCTTCAAC,0.0452
7,CGGGGCAA,-0.162
8,ACACGAAC,0.0477
9,CGTTTCAC,0.128
10,CACTAACA,0.184
11,ATCGTCAT,0.448
12,AGTGAGCC,-0.0726
13,GATCAAAC,0.099
14,AGTTGACG,0.324
15,GAAGCCTA,0.00335
16,TCAGCCCA,-0.118
17,CATCACTC,0.241
18,GCTTGGCC,-0.162
19,CTAGAATC,-0.12
20,CTGTCACC,0.0496
21,CTTTAAAG,0.0359
22,CATGTCAG,0.144
23,AATAGTCC,-0.196
24,GAACCCCC,-0.439
25,GGGAGGAC,-0.195

row,Sequence,PBM E-score
1,CGGACACA,-0.0824
2,ACCGAAGT,-0.0391
3,ATGCCTCC,-0.0323
4,CCCTCAGA,-0.228
5,CACGGACG,0.124
6,CGCTTGCC,-0.0149
7,TTAGAGAA,0.0169
8,AGTAAACC,-0.161
9,CGACGTCA,0.491
10,CAATTAAA,0.119
11,AATTTCCT,0.0537
12,AGACTATA,0.0176
13,CAGGATCC,-0.075
14,GATTCCCA,-0.117
15,AAGCGTTC,-0.203
16,AGCATCCT,-0.17
17,AGACATCT,-0.173
18,GGTGTAGA,-0.236
19,AGCACCGG,-0.268
20,AATAAAAT,0.246
21,ATCTCCAC,-0.0115
22,GCCTGGCA,-0.332
23,ATGCAATA,0.106
24,GCAACAAC,0.0303
25,CGAAATAA,0.26

row,Sequence,PBM E-score
1,TCACTTCA,0.12
2,AAAGCTTA,0.167
3,ACAACCAA,-0.0137
4,GAGCATAC,-0.094
5,CGAATTCC,0.0181
6,AGTCCCAC,-0.353
7,GGCGGTAC,-0.118
8,GATGCGCA,0.162
9,ATGTGTGG,0.041
10,TCAGCGCA,-0.176
11,ACATATTA,0.312
12,CTGGTAAG,0.161
13,AGGTTTGA,-0.128
14,AAGAGGAA,0.0991
15,ACTCGTTA,-0.0899
16,AGACAACA,0.0611
17,TCTCTCAA,0.168
18,GGAGCGTA,-0.106
19,ACAAATAT,0.237
20,AAACTAAC,0.236
21,ATTAGTCC,0.0565
22,AAGACACC,-0.0482
23,GTCCAGGA,-0.124
24,GCATTTCC,0.00255
25,TTCACCAA,0.124

row,Sequence,PBM E-score
1,AGTATCAC,0.102
2,GATCTTCC,-0.181
3,AATCACGG,0.168
4,GACGATAA,0.153
5,CCGACTAG,-0.237
6,AAATTTAT,0.234
7,CTTAATGA,0.0738
8,AGCGGCAT,0.273
9,CCCGTCAC,0.2
10,ATCGATGC,0.175
11,AGAAGCCA,0.128
12,ATGAGGAG,-0.0136
13,GGATTGAC,0.0732
14,CCGCGAAA,0.0642
15,AGCCGTGC,0.24
16,ACTTAATA,0.229
17,CAAAGCTA,0.0247
18,ACGCCAAA,-0.0919
19,AGAATCGC,-0.00517
